Out of some 3,200 compounds screened, about 75 (2%) showed an effect of 50% or more. The list shows a part of the results.
System: T1, S. aureus MSSA476
T1 construct: MSSA476
Parameters: species or system S. aureus MSSA476 (TSB) or V. cholerae SAD30 (LB); 384-well bacterial growth screen at 25 uM, OD600 relative to DMSO control
Settings: relative growth, OD600, TSB; 25 µM; inhibitor

| SMILES | % of control remaining [%] |
| --- | --- |
| CN1C(=C(C#N)C(=O)CCl)Sc2ccccc21 [10-G08, 4-chloro-2-(3-methyl-2,3-dihydro-1,3-benzothiazol-2-ylidene)-3-oxobutanenitrile] | 117.188 |
| O=C(CCl)Nc1ccc(C(=O)O)cc1[N+](=O)[O-] [4-C21, 4-(2-chloroacetamido)-3-nitrobenzoic acid] | 114.721 |
| COCCNC(=O)C(C#N)=Cc1cccc2ccccc12 [8-L12, 2-cyano-N-(2-methoxyethyl)-3-(naphthalen-1-yl)prop-2-enamide] | 99.2531 |
| C=CC(=O)N1CCOC(c2ccccc2)C1 (stereo not drawn) [2-I07, 1-(2-phenylmorpholin-4-yl)prop-2-en-1-one] | 102.002 |
| C=CC(=O)N1CC2(CCCC2)CC1CO (stereo not drawn) [2-I19, 1-[3-(hydroxymethyl)-2-azaspiro[4.4]nonan-2-yl]prop-2-en-1-one] | 89.4691 |
| O=C(CCl)N1CCCC1c1ccccc1 (stereo not drawn) [6-M19, 2-chloro-1-(2-phenylpyrrolidin-1-yl)ethan-1-one] | 103.463 |
| O=C(CCl)Nc1ccc(Cl)c(S(=O)(=O)N2CCOCC2)c1 [6-K13, 2-chloro-N-[4-chloro-3-(morpholine-4-sulfonyl)phenyl]acetamide] | 104.146 |
| Cc1c(C#N)c(NC(=O)CCl)n(Cc2cccs2)c1C [4-C04, 2-chloro-N-{3-cyano-4,5-dimethyl-1-[(thiophen-2-yl)methyl]-1H-pyrrol-2-yl}acetamide] | 108.623 |
| O=C(CCl)N1N=C(c2ccccc2)CC1c1ccc2nccnc2c1 (stereo not drawn) [4-A22, 2-chloro-1-[3-phenyl-5-(quinoxalin-6-yl)-4,5-dihydro-1H-pyrazol-1-yl]ethan-1-one] | 113.959 |
| C=CC(=O)NCCC(=O)N1CCC(O)(c2c(F)cccc2F)CC1 [2-B11, N-{3-[4-(2,6-difluorophenyl)-4-hydroxypiperidin-1-yl]-3-oxopropyl}prop-2-enamide] | 144.473 |
| CCc1nc(C2CCCN2C(=O)CCl)no1 (stereo not drawn) [5-C08, 2-chloro-1-[2-(5-ethyl-1,2,4-oxadiazol-3-yl)pyrrolidin-1-yl]ethan-1-one] | 111.84 |
| N#CC(=Cc1cn(-c2ccccc2)nc1-c1ccccc1Cl)C(N)=O [8-N18, 3-[3-(2-chlorophenyl)-1-phenyl-1H-pyrazol-4-yl]-2-cyanoprop-2-enamide] | 131.12 |
| Cl.O=C(CCl)NCc1ccccc1CN1CCOCC1 [5-L06, 2-chloro-N-({2-[(morpholin-4-yl)methyl]phenyl}methyl)acetamide hydrochloride] | 105.282 |
| CCn1nc(C)c(CNC(=O)CCl)c1C [7-P10, 2-chloro-N-[(1-ethyl-3,5-dimethyl-1H-pyrazol-4-yl)methyl]acetamide] | 96.3893 |
| CC(Cl)C(=O)N1CC(n2cc(C(N)=O)nn2)C1 (stereo not drawn) [5-F21, 1-[1-(2-chloropropanoyl)azetidin-3-yl]-1H-1,2,3-triazole-4-carboxamide] | 106.011 |
| CC(C)c1ccc(CCNC(=O)CCl)cc1 [6-I16, 2-chloro-N-{2-[4-(propan-2-yl)phenyl]ethyl}acetamide] | 115.756 |
| CC(Cl)C(=O)N(Cc1nnc(-c2ccccc2Cl)o1)C1CC1 (stereo not drawn) [5-B17, 2-chloro-N-{[5-(2-chlorophenyl)-1,3,4-oxadiazol-2-yl]methyl}-N-cyclopropylpropanamide] | 92.5319 |
| O=C(CCl)N1CC(NC(=O)C(F)(F)F)CCC1C(F)(F)F (stereo not drawn) [5-O18, N-[1-(2-chloroacetyl)-6-(trifluoromethyl)piperidin-3-yl]-2,2,2-trifluoroacetamide] | 94.7177 |
| COc1cc(CNC(=O)C(C#N)=Cc2ccco2)c2ccccc2n1 [9-I05, 2-cyano-3-(furan-2-yl)-N-[(2-methoxyquinolin-4-yl)methyl]prop-2-enamide] | 79.7004 |
| Cn1cc(C(=O)CCl)cc1C(N)=O [10-J06, 4-(2-chloroacetyl)-1-methyl-1H-pyrrole-2-carboxamide] | 112.188 |
| C=CC(=O)N1CCC(C(=O)N[C@@H](C)C(=O)NC)(c2ccccc2)CC1 [2-B16, (2S)-N-methyl-2-{[4-phenyl-1-(prop-2-enoyl)piperidin-4-yl]formamido}propanamide] | 105.831 |
| CC(Cl)C(=O)NC(C)(C(N)=O)c1cccc(Cl)c1 (stereo not drawn) [5-J17, 2-(3-chlorophenyl)-2-(2-chloropropanamido)propanamide] | 120.583 |
| O=C(CCl)Nc1ccc(S(=O)(=O)Nc2nccs2)cc1 [4-B14, 2-chloro-N-{4-[(1,3-thiazol-2-yl)sulfamoyl]phenyl}acetamide] | 131.872 |

| SMILES | % of control remaining [%] |
| --- | --- |
| C=CC(=O)NCC1CCN(C2CC2)CC1 [1-A07, N-[(1-cyclopropylpiperidin-4-yl)methyl]prop-2-enamide] | 104.44 |
| C=CC(=O)NC1CCN(S(N)(=O)=O)CC1 [1-K18, N-(1-sulfamoylpiperidin-4-yl)prop-2-enamide] | 82.989 |
| CC(C)c1ccc(C(NC(=O)CCl)C(C)C)cc1 (stereo not drawn) [4-O14, 2-chloro-N-{2-methyl-1-[4-(propan-2-yl)phenyl]propyl}acetamide] | 88.0419 |
| COc1ccc(C=C(C#N)C(N)=O)c(Cl)c1OC [9-H14, 3-(2-chloro-3,4-dimethoxyphenyl)-2-cyanoprop-2-enamide] | 98.2772 |
| N#CC(=Cc1ccco1)C(=O)NCc1nc(-c2ccncc2)cs1 [9-B20, 2-cyano-3-(furan-2-yl)-N-{[4-(pyridin-4-yl)-1,3-thiazol-2-yl]methyl}prop-2-enamide] | 93.4831 |
| CC(CO)(Cc1ccc(F)cc1)NC(=O)CCl (stereo not drawn) [7-F06, 2-chloro-N-{2-[(4-fluorophenyl)methyl]-1-hydroxypropan-2-yl}acetamide] | 106.122 |
| C=CC(=O)Nc1cc(C)c(CC)cc1OC [3-O06, N-(4-ethyl-2-methoxy-5-methylphenyl)prop-2-enamide] | 90.9012 |
| C=CC(=O)N(C)Cc1cc(-c2ccccc2)[nH]n1 [1-B05, N-methyl-N-[(5-phenyl-1H-pyrazol-3-yl)methyl]prop-2-enamide] | 83.3407 |
| O=C(CCl)NC1CCCS(=O)(=O)c2ccccc21 (stereo not drawn) [6-O19, 2-chloro-N-(1,1-dioxo-2,3,4,5-tetrahydro-1lambda6-benzothiepin-5-yl)acetamide] | 84 |
| COc1ccc(NC(C)=O)cc1NC(=O)CCl [5-G03, 2-chloro-N-(5-acetamido-2-methoxyphenyl)acetamide] | 93.9891 |
| CC(Cl)C(=O)N1CCC(N(CC(F)(F)F)S(C)(=O)=O)CC1 (stereo not drawn) [7-C07, N-[1-(2-chloropropanoyl)piperidin-4-yl]-N-(2,2,2-trifluoroethyl)methanesulfonamide] | 100.471 |
| C=CC(=O)N(CC)CC(=O)N1CCc2c(cccc2NC(C)=O)C1 [3-K16, N-[2-(5-acetamido-1,2,3,4-tetrahydroisoquinolin-2-yl)-2-oxoethyl]-N-ethylprop-2-enamide] | 86.0253 |
| N#CC(=Cc1ccc(F)c(F)c1)C(=O)NC1CCCCC1 [9-J22, 2-cyano-N-cyclohexyl-3-(3,4-difluorophenyl)prop-2-enamide] | 94.0824 |
| CCCCNC(=O)C(C#N)=Cc1ccc(Cl)cc1Cl [9-O07, N-butyl-2-cyano-3-(2,4-dichlorophenyl)prop-2-enamide] | 101.573 |
| CCCn1c(C)cc(C=C(C#N)C(=O)Nc2ccc3c(c2)OCO3)c1C [9-G07, N-(1,3-dioxaindan-5-yl)-2-cyano-3-(2,5-dimethyl-1-propyl-1H-pyrrol-3-yl)prop-2-enamide] | 76.4045 |
| N#CC1=C(N2CCOCC2)SC(c2cccc([N+](=O)[O-])c2)NC1=O (stereo not drawn) [9-L19, 6-(morpholin-4-yl)-2-(3-nitrophenyl)-4-oxo-3,4-dihydro-2H-1,3-thiazine-5-carbonitrile] | 94.9813 |
| O=C(CCl)NC1CCCN(c2cc(N3CCOCC3)ncn2)C1 (stereo not drawn) [4-N21, 2-chloro-N-{1-[6-(morpholin-4-yl)pyrimidin-4-yl]piperidin-3-yl}acetamide] | 90.3287 |
| COc1ccc(CCNC(=O)CCl)cc1 [5-H12, 2-chloro-N-[2-(4-methoxyphenyl)ethyl]acetamide] | 102.732 |
| N#CC(C(=O)CCl)=C1NC2=C(CCc3ccccc32)S1 [10-N10, 4-chloro-2-{1H,2H,4H,5H-naphtho[1,2-d][1,3]thiazol-2-ylidene}-3-oxobutanenitrile] | 59.6875 |
| O=C1CCc2cc(C(=O)CCl)c(F)cc2N1 [10-O20, 6-(2-chloroacetyl)-7-fluoro-1,2,3,4-tetrahydroquinolin-2-one] | 3.75 |
| CN(C)C(=O)c1ccc(CNC(=O)CCl)cc1 [6-C16, 4-[(2-chloroacetamido)methyl]-N,N-dimethylbenzamide] | 116.78 |
| Cc1cc(C(=O)CCl)c(C)n1CC1CCCO1 (stereo not drawn) [10-B08, 2-chloro-1-{2,5-dimethyl-1-[(oxolan-2-yl)methyl]-1H-pyrrol-3-yl}ethan-1-one] | 113.437 |
